# Results: the supplement of paper PMC8728848
# The other results are listed elsewhere or left out.
# B1: GS14009A-pdi-495-27-495 (Parabacteroides distasonis) (protein)
# chain: FEEVNTDPDSPTDVPTTNLLAYSLYYTSYRLYDRWFAMDEPMTFCGYASKMTYIDESRYNFRTGVQDTNWEYLYRILNNLKDIEKRATFNETPNMLNVSKVMQVHLMQVATDRWRDVPYTDAAKMTDGILQPKYDKQEDIYPGLLATLKEAADGFADGGSDDLGEGDLLFGGDIEKWQRYCNSMRLRLAMRISEVSPALAKETVEEVMGNPTKYPIMESNDDNAFFWWIGTDPNYYEPMADGYRTRKTEYCAADVIVDHMNTREDPRRSSYFQPTKESVEAGEPKYVGYTIGAKANAVASKYSIWGARFFTDLAGFSPYMRVAEPWFCVAEASMLGWNTGISAEDAYNKAVTYSMEENSVSAEDIADYLANAGKFTNDKKQIYYEEWVAMFKQGMEGWSLYRRTGVPDNLYPAPGRPANYSNHNVPPFRSPYPDKERNLNNANCAPFDAEVVDNLWGKQMWWDTRTGVH
# Key:
# Test in all cases: glycan array binding signal (z-score within array); higher = stronger binding
# Settings in all cases: glycan notation: IUPAC condensed, linker removed
# [1] = molecular target: Gal3S(b1-4)Glc
# Summary of the method: (§1)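 The binding signal is a Z-score computed within each array and averaged over linkers. Arrays of the same protein sequence at different concentrations or buffers were also averaged together. Data originate from 3228 arrays in the Consortium for Functional Glycomics database, kept only where the protein sequence was available.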
# [2] = molecular target: Gal3S(b1-4)Glc6S
# Summary of the method: as §1
# [3] = molecular target: Gal3S(b1-4)GlcNAc
# Summary of the method: as §1
# [4] = molecular target: Gal3S(b1-4)[Fuc(a1-3)]Glc6S
# Summary of the method: as §1
# [5] = molecular target: Gal3S(b1-4)[Fuc(a1-3)]GlcNAc
# Summary of the method: as §1
# [6] = molecular target: Gal3S(b1-4)[Fuc(a1-3)]GlcNAc6S
# Summary of the method: as §1
# [7] = molecular target: Gal3S4S(b1-4)GlcNAc
# Summary of the method: as §1
# [8] = molecular target: Gal3S6S(b1-4)GlcNAc
# Summary of the method: as §1
# [9] = molecular target: Gal3S6S(b1-4)GlcNAc6S
# Summary of the method: as §1
# [10] = molecular target: Gal4S(b1-4)GlcNAc
# Summary of the method: as §1
# [11] = molecular target: Gal4S6S(b1-4)GlcNAc
# Summary of the method: as §1
# [12] = molecular target: Gal6P(b1-4)GlcNAc
# Summary of the method: as §1
# [13] = molecular target: Gal6S(b1-3)GlcNAc
# Summary of the method: as §1
# [14] = molecular target: Gal6S(b1-3)GlcNAc6S
# Summary of the method: as §1
# [15] = molecular target: Gal6S(b1-4)Glc
# Summary of the method: as §1
# [16] = molecular target: Gal6S(b1-4)Glc6S
# Summary of the method: as §1
# [17] = molecular target: Gal6S(b1-4)GlcNAc
# Summary of the method: as §1
# [18] = molecular target: Gal6S(b1-4)GlcNAc6S
# Summary of the method: as §1
# [19] = molecular target: GalNAc(a1-3)Gal
# Summary of the method: as §1
# [20] = molecular target: GalNAc(a1-3)GalNAc
# Summary of the method: as §1
# [21] = molecular target: GalNAc(a1-3)GalNAc(b1-3)Gal(a1-4)Gal(b1-4)Glc
# Summary of the method: as §1
# [22] = molecular target: GalNAc(a1-3)GalNAc(b1-3)Gal(a1-4)Gal(b1-4)GlcNAc
# Summary of the method: as §1
# [23] = molecular target: GalNAc(b1-3)Gal
# Summary of the method: as §1
# [24] = molecular target: GalNAc(b1-3)Gal(a1-4)Gal(b1-4)GlcNAc
# Summary of the method: as §1
# [25] = molecular target: GalNAc(b1-3)Gal(a1-4)Gal(b1-4)GlcNAc(b1-3)Gal(b1-4)Glc
# Summary of the method: as §1
# [26] = molecular target: GalNAc(b1-3)Gal(a1-6)Gal(b1-4)Glc
# Summary of the method: as §1
# [27] = molecular target: GalNAc(b1-3)GalNAc
# Summary of the method: as §1
# [28] = molecular target: GalNAc(b1-3)GlcNAc
# Summary of the method: as §1
# [29] = molecular target: GalNAc(b1-4)Gal(b1-4)Glc
# Summary of the method: as §1
# [30] = molecular target: GalNAc(b1-4)GlcNAc
# Summary of the method: as §1
# [31] = molecular target: GalNAc(b1-4)GlcNAc(b1-2)Man
# Summary of the method: as §1
# [32] = molecular target: GalNAc(b1-4)GlcNAc(b1-2)Man(a1-3)[GalNAc(b1-4)GlcNAc(b1-2)Man(a1-6)]Man(b1-4)GlcNAc(b1-4)GlcNAc
# Summary of the method: as §1
# [33] = molecular target: GalNAc(b1-4)GlcNAc(b1-3)GalNAc(b1-4)GlcNAc
# Summary of the method: as §1
# [34] = molecular target: GalNAc(b1-4)GlcNAc6S
# Summary of the method: as §1
# [35] = molecular target: GalNAc(b1-6)GalNAc
# Summary of the method: as §1
# [36] = molecular target: GalNAc3S(b1-4)GlcNAc
# Summary of the method: as §1
# [37] = molecular target: GalNAc3S(b1-4)GlcNAc3S
# Summary of the method: as §1
binder,measurement,setting,value
B1,glycan array binding signal (z-score),[1],0.684
same,glycan array binding signal (z-score),[2],-0.314
same,glycan array binding signal (z-score),[3],-0.006
same,glycan array binding signal (z-score),[4],-0.36
same,glycan array binding signal (z-score),[5],-0.646
same,glycan array binding signal (z-score),[6],-0.381
same,glycan array binding signal (z-score),[7],-0.238
same,glycan array binding signal (z-score),[8],-0.34
same,glycan array binding signal (z-score),[9],0.712
same,glycan array binding signal (z-score),[10],-0.28
same,glycan array binding signal (z-score),[11],-0.854
same,glycan array binding signal (z-score),[12],-0.561
same,glycan array binding signal (z-score),[13],-0.313
same,glycan array binding signal (z-score),[14],0.006
same,glycan array binding signal (z-score),[15],0.253
same,glycan array binding signal (z-score),[16],1.06
same,glycan array binding signal (z-score),[17],-0.501
same,glycan array binding signal (z-score),[18],0.26
same,glycan array binding signal (z-score),[19],0.447
same,glycan array binding signal (z-score),[20],0.253
same,glycan array binding signal (z-score),[21],-0.395
same,glycan array binding signal (z-score),[22],-0.352
same,glycan array binding signal (z-score),[23],-0.403
same,glycan array binding signal (z-score),[24],-0.096
same,glycan array binding signal (z-score),[25],-0.364
same,glycan array binding signal (z-score),[26],0.151
same,glycan array binding signal (z-score),[27],-0.605
same,glycan array binding signal (z-score),[28],-0.362
same,glycan array binding signal (z-score),[29],-0.282
same,glycan array binding signal (z-score),[30],0.122
same,glycan array binding signal (z-score),[31],-0.162
same,glycan array binding signal (z-score),[32],0.256
same,glycan array binding signal (z-score),[33],-0.71
same,glycan array binding signal (z-score),[34],0.203
same,glycan array binding signal (z-score),[35],-0.391
same,glycan array binding signal (z-score),[36],-0.416
same,glycan array binding signal (z-score),[37],0.001
